Results on two molecules are retold here after patent US10093741.

In this assay the target is insulin-like growth factor-1 receptor (IGF-1R) (human) (UniProt P08069). Kind of assay: cell-based or functional assay.
Chain of UniProt P08069 (P08069 31-1367): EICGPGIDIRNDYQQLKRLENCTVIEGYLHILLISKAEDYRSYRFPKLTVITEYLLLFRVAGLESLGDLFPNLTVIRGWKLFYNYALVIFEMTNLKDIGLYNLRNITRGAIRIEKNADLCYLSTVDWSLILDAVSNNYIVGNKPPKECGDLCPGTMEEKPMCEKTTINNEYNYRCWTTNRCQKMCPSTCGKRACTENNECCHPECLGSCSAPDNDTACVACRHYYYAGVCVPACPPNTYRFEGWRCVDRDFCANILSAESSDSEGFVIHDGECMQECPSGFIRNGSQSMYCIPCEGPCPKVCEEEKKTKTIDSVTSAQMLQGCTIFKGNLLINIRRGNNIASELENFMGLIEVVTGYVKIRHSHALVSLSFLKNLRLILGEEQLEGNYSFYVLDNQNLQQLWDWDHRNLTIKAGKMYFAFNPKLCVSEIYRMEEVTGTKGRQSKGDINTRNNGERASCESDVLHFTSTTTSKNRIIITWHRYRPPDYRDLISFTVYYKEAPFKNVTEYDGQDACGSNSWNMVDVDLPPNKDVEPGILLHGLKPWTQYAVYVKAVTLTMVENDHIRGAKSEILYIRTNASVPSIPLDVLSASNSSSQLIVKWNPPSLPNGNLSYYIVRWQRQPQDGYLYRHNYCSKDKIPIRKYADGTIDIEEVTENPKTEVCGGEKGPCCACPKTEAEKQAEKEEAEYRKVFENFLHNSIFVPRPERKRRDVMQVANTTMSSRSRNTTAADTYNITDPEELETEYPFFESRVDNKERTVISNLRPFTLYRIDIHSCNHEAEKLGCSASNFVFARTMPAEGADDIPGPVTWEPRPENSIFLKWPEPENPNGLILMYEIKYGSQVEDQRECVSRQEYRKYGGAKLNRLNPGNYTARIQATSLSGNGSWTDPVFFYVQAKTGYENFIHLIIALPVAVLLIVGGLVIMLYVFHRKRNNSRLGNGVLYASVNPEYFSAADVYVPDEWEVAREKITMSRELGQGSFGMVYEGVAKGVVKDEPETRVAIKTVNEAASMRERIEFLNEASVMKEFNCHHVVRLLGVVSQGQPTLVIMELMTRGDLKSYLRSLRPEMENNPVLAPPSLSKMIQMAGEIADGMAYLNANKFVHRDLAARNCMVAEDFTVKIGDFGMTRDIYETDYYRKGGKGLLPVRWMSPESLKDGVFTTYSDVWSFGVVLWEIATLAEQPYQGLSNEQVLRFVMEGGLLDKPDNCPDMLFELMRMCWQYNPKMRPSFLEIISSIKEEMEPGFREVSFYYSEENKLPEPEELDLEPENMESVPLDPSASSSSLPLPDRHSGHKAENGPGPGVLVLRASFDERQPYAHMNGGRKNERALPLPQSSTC

B1: Compound C-HuMIGF-1R (antibody)
light: DVVMTQTPLSLPVSLGDPASISCRSSQSIVHSNVNTYLEWYLQKPGQSPRLLIYKVSNRFSGVPDRFSGSGAGTDFTLRISRVEAEDLGIYYCFQGSHVPPTFGGGTKLEIKRTVAAPSVFIFPPSDEQLKSGTASVVCLLNNFYPREAKVQWKVDNALQSGNSQESVTEQDSKDSTYSLSSTLTLSKADYEKHKVYACEVTHQGLSSPVTKSFNRGEC
heavy: QVQLVQSGAEVVKPGASVKLSCKASGYTFTSYWMHWVKQRPGQGLEWIGEINPSNGRTNYNQKFQGKATLTVDKSSSTAYMQLSSLTSEDSAVYYFARGRPDYYGSSKWYFDVWGQGTTVTVSS[human IgG1 constant region omitted here]
modifications: Compound C (DOTA-GA with PEG3 linker, TFP ester) conjugated to the antibody, sites not stated; no radiometal; batches with 1.9-7.4 DOTA per mAb
B1 registered a Compound Potency (IC50; µg/mL): inhibition of IGF-1 ligand stimulated autophosphorylation of IGF-1R in A431 cells, phospho-IGF-1R ELISA of 0.09 µg/mL; a Conjugate Potency (IC50; µg/mL): inhibition of IGF-1 ligand stimulated autophosphorylation of IGF-1R in A431 cells, phospho-IGF-1R ELISA; degree of substitution 3.8 DOTA/mAb of 0.07 µg/mL; a Conjugate Potency (IC50; µg/mL): inhibition of IGF-1 ligand stimulated autophosphorylation of IGF-1R in A431 cells, phospho-IGF-1R ELISA; degree of substitution 4.9 DOTA/mAb of 0.1 µg/mL; a Conjugate Potency (IC50; µg/mL): inhibition of IGF-1 ligand stimulated autophosphorylation of IGF-1R in A431 cells, phospho-IGF-1R ELISA; degree of substitution 6.4 DOTA/mAb of 0.13 µg/mL. The same molecule came in with a Conjugate Potency (IC50; µg/mL): inhibition of IGF-1 ligand stimulated autophosphorylation of IGF-1R in A431 cells, phospho-IGF-1R ELISA; degree of substitution 7.4 DOTA/mAb of 0.14 µg/mL.

B2: [^225Ac]-Compound C-HuMIGF-1R (antibody)
light: B1 light
heavy: B1 heavy
modifications: Compound C (DOTA-GA with PEG3 linker, TFP ester) conjugated to the antibody, sites not stated; chelate loaded with 225Ac
In turn, B2 had a Compound Potency (IC50; µg/mL): inhibition of IGF-1 ligand stimulated autophosphorylation of IGF-1R in A431 cells, phospho-IGF-1R ELISA of 0.13 µg/mL.
